{"source": "the supplement of paper PMC10338343", "note": "± gives the standard deviation. The list shows a part of the results, in another mix than the full data.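 Note: 1 nM active piRISC with 0.1 nM target library at 33 °C single turnover.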", "data": [{"system": "MIWI (PIWIL1) piRISC loaded with piRNA #1 (30 nt)", "experiment": "pre-steady-state target cleavage rate (min^-1); MIWI and MILI are mouse PIWI proteins and EfPiwi is from a freshwater sponge; tags in brackets are library labels; higher = faster piRNA-guided slicing of the target", "conditions": "guide: piRNA #1 5'p-UGAGGUAGUAGGUUGUAUAGUAUCCAGAGG; auxiliary factor: 500 nM mouse GTSF1", "method_in_brief": "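A burst-and-steady-state fit was used to obtain the pre-steady-state cleavage rate. The input data were sequencing reads of uncleaved targets, normalised to depth and to weakly complementary targets, from a […] transcribed, DNA-blocked target RNA library mixed with 1 nM active affinity-purified piRISC holding one synthetic guide, with or without 500 nM GTSF1 partner protein, in HEPES–potassium acetate buffer at 33 °C for 0–8 or 0–960 min. Three trials were pooled and k3 was capped at 0.0001 min^-1.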", "values": [{"sequence": "GGAGACCUAUCUAUACAACCUAGUACCACA", "pre-steady-state target cleavage rate": "0.184 ± 0.035"}, {"sequence": "GCUCUGGAUACUAUACAACCUACUACCGCA", "pre-steady-state target cleavage rate": "1.76 ± 0.12"}, {"sequence": "GGAGACCUAUCUAUACAACCUACUCCCUCA", "pre-steady-state target cleavage rate": "0.4 ± 0.041"}, {"sequence": "GGAGACCUAACUAAACAACCUAGUACCUCA", "pre-steady-state target cleavage rate": "0.0545 ± 0.017"}, {"sequence": "GGAGACCUAUGUAUACAACCUACUACCGUCA", "pre-steady-state target cleavage rate": "0.083 ± 0.012"}, {"sequence": "GGUCUGGAUACUAUACAACCUACUACCUA", "pre-steady-state target cleavage rate": "0.685 ± 0.11"}, {"sequence": "CCUCAGCAUACUAUACAACCUACUACCUCA", "pre-steady-state target cleavage rate": "2.12 ± 0.13"}, {"sequence": "GGAGAGCAUACUUUACAACCUACUACCUCA", "pre-steady-state target cleavage rate": "1.21 ± 0.089"}, {"sequence": "GGAGACCUUACUAUACAACCUAGAUCCUCA", "pre-steady-state target cleavage rate": "0.0191 ± 0.0044"}, {"sequence": "GGAGUGGAUAGUAUACAACCAACUACCUCA", "pre-steady-state target cleavage rate": "0.0884 ± 0.009"}, {"sequence": "GGAGUGGAUACAAUACAAGCUACUACCUCA", "pre-steady-state target cleavage rate": "0.789 ± 0.036"}, {"sequence": "GGUCUGGAUACUAUACAACCUAGUACCUGA", "pre-steady-state target cleavage rate": "0.00324 ± 0.0027"}, {"sequence": "GGAGACCUAUGUAUACAACCUACUACCUCU [g2:g19:cont:t1U]", "pre-steady-state target cleavage rate": "0.187 ± 0.016"}, {"sequence": "GGAGUGGAUACUAUACAAGCUACAACCUCA", "pre-steady-state target cleavage rate": "0.583 ± 0.043"}, {"sequence": "GGAGACGGAUACUAUACAACCUACUACCUCA", "pre-steady-state target cleavage rate": "1.7 ± 0.08"}, {"sequence": "GGAGACCUAACUAUUCAAGCUACUACCUCA", "pre-steady-state target cleavage rate": "0.297 ± 0.034"}, {"sequence": "GGACUGGAAACUAUACAACCUUCUACCUCA", "pre-steady-state target cleavage rate": "0.518 ± 0.052"}, {"sequence": "GGAGUGGAAACUAUAGAACCUACUACCUCA", "pre-steady-state target cleavage rate": "1.31 ± 0.072"}, {"sequence": "CCACUGGAAACUAUACAACCUACUACCUCA", "pre-steady-state target cleavage rate": "2.06 ± 0.11"}, {"sequence": "GGACUGGAUACAAUACAACCUACUACCUGA", "pre-steady-state target cleavage rate": "0.458 ± 0.084"}, {"sequence": "GGAGACCUAUCUAUACAACCUACUAACUCA", "pre-steady-state target cleavage rate": "0.938 ± 0.061"}, {"sequence": "GGAGUGGAUCCUAUACAACCUACUACCUCA", "pre-steady-state target cleavage rate": "1.8 ± 0.16"}, {"sequence": "CCUCUGGAUACUAUCACAACCUACUACCUCA", "pre-steady-state target cleavage rate": "1.81 ± 0.14"}, {"sequence": "GGUCUGGAUAGUAUACAACCAACUACCUCA", "pre-steady-state target cleavage rate": "0.0834 ± 0.0079"}, {"sequence": "GGACUGGAUACUAUACAACCUACUACCAUCA", "pre-steady-state target cleavage rate": "0.26 ± 0.038"}, {"sequence": "GGAGACCUUACUUAACAACCUACUACCUCA", "pre-steady-state target cleavage rate": "0.0631 ± 0.011"}, {"sequence": "GGAGACCUAUCUAUACAACCUAGAACCUCA", "pre-steady-state target cleavage rate": "0.00892 ± 0.0022"}, {"sequence": "GGAGAGGAUACUAUACUACCUACUAGCUCA", "pre-steady-state target cleavage rate": "0.349 ± 0.035"}, {"sequence": "GGAGACCUUACUACACAACCUACUACCUCA", "pre-steady-state target cleavage rate": "1.24 ± 0.086"}, {"sequence": "GGAGACCUAUCUAUUCAAGCUACUACCUCA", "pre-steady-state target cleavage rate": "0.16 ± 0.021"}, {"sequence": "GGAGACCAUACUAUACAAGCUACUACGUCA", "pre-steady-state target cleavage rate": "0.572 ± 0.034"}, {"sequence": "GGAGACCAUUACUAUACAACCUACUACCUCA", "pre-steady-state target cleavage rate": "1.59 ± 0.12"}, {"sequence": "GGAGACCUAACUAUACAACCUACUACCCA", "pre-steady-state target cleavage rate": "0.186 ± 0.041"}, {"sequence": "GGACUGGAUACUAUACAUCCUACUACCUCA", "pre-steady-state target cleavage rate": "1.53 ± 0.096"}, {"sequence": "CUCUCUGGAUACUAUACAACCUACUACCUCA", "pre-steady-state target cleavage rate": "2.1 ± 0.13"}, {"sequence": "CCACUGGAUACUAUACAACCUAGUACCUCA", "pre-steady-state target cleavage rate": "0.131 ± 0.023"}, {"sequence": "GGACUGGAUUCUAUUCAACCUACUACCUCA", "pre-steady-state target cleavage rate": "1.4 ± 0.12"}, {"sequence": "GGACUGGAUACUAUACAACCUACUACCUGCA", "pre-steady-state target cleavage rate": "0.545 ± 0.073"}, {"sequence": "GGACUGGAUACUAUGACAACCUACUACCUCA", "pre-steady-state target cleavage rate": "1.6 ± 0.14"}, {"sequence": "GGAGACCUAACUAUACUACGUACUACCUCA", "pre-steady-state target cleavage rate": "0.00532 ± 0.0021"}]}]}
